# Hit rate of the full screen: of about 150,000 compounds, about 540 (0.36%) showed an effect of 50% or more. Some of the results follow.
# System: Plasmodium falciparum
# Experiment: Primary screen in NF54 nanoGlo assay, in single point, at 2uM, 72h; a lower Z score goes with more inhibition
# Format: functional, Erythrocyte
# Settings: timepoint 72 hour
SMILES,% Inhibition [%],Z score
CC(C)(C)C(=O)NCC[C@H](O)c1ccccc1,-5,0.92
CCc1[nH]c2c(CNC(=O)c3c(C)cc(C)n(C)c3=O)cc(F)cc2c1C,-10,2.06
O=C(Cn1cc(S(=O)(=O)N2CCOCC2)ccc1=O)Nc1ccccc1Cl,3,-0.59
O=c1[nH]c2cc(Br)c(S(=O)(=O)Nc3cccnc3)cc2[nH]1,3,-0.54
O=C1OCCN1CCn1ccnc1C1CC1,-8,1.33
C/N=C(\Nc1cccc(S(=O)(=O)N2CCOCC2)c1)c1ccccc1,1,-0.14
N#Cc1cccc(NC(=O)CN2C(=O)CN(C3CCCC3)C2=O)c1,-9,0.85
CC1CCCC(OCc2cccc(NC(=O)CN3CCCNC3=O)c2)C1 (stereo not given),-2,0.26
O=C(NCCc1ccncc1)c1cccc(-c2cnn(CC3CC3)c2)c1,-8,1.45
CN1C(=O)c2cc(C(=O)NCCN3CCCC3)nn2C[C@@]1(C)C(=O)NC1CCCCCC1,10,-1.13
Cc1ccc(NC2(C(=O)N3C[C@H](O)[C@@H](F)C3)CCCCC2)cc1C,-9,1.27
COCCC[C@H]1CCCCN1S(=O)(=O)N(C)C,-12,2.23
C[C@H](NC(=O)CC1(N2Cc3ccccc3C2=O)CCOCC1)c1nc2ccccc2n1C,-14,1.78
O=C(CC1CCCC1)NC1CC(O)C(CO)C1 (stereo not given),-13,2.05
COc1ccc(CNC2CC3CCC2C3)cc1NC(C)=O (stereo not given),4,-0.44
N[C@H]1CC[C@@H](C(=O)Nc2cccc3c(-c4ccccc4)ccnc23)C1,-3,0.32
O=C(Cc1ccccc1)Nc1ccc(N2CCN(C(=O)c3cccs3)CC2)nc1,-19,1.9
CN(C)c1nc(N2CCC[C@H](O)CC2)ncc1F,-10,2
CNS(=O)(=O)[C@H]1CCN(C(=O)CCCc2cc(F)ccc2F)C1,2,-0.33
COc1cc(-c2ccccc2)ccc1CN1CCC(n2cncn2)CC1,16,-1.79
COCc1nocc1C(=O)NC[C@H]1CCc2nccn2C1,-4,0.8
Cc1cc(C(=O)NC[C@H](Cc2ccccc2)C(=O)O)sc1C,-11,2.17

SMILES,% Inhibition [%],Z score
O=C(NCc1ccccc1Cl)[C@@H]1Oc2ccccc2NC1=O,0,-0.02
O=C(Nc1cccc(Cl)c1)C1[C@H]2C=C[C@@]3(O2)C(C(=O)NC2CCCCC2)N(CC2COc4ccccc4O2)C(=O)[C@@H]13 (stereo not given in full),2,-0.32
Cc1ccccc1OC/C=C/CN1CCOCC1,-7,0.75
O=C(NCc1nnc[nH]1)c1cccn1C1CCCC1,-8,1.48
CN1CCN(C[C@@H]2OC[C@H](NC(=O)c3ccccc3)[C@H]2O)CC1,-5,0.67
O=C(CCCc1nccs1)NCC1CCCCC1O (stereo not given),-9,1.03
CC1(C)OCC[C@@H]1NCc1noc2c1COCC2,-14,1.5
O=C(NC(Cc1ccccc1)c1ncco1)N[C@H]1CCC[C@@H](C2CC2)C1 (stereo not given in full),-1,0.22
Cc1c(Cl)cccc1Nc1cc(C(C)C)nc2nc(-c3cccnc3)nn12,5,-0.74
N#Cc1nc(C2CC2)oc1N1CCN(C(=O)c2cc(F)cc(F)c2)CC1,-10,0.94
CC(C)N1CCCN(C2CCN(c3cccc(N4CCCC4=O)c3)CC2)CC1,-6,0.87
CCc1ccccc1NC(=O)CN(C)[C@@H](C)C(=O)Nc1ccc(Cl)cn1,-12,2.19
COc1ccc(NC(=O)Nc2ccc(N3CCCN(Cc4ccc(F)cc4F)CC3)nc2)cc1,-11,2.02
CC1C(c2ccccc2)N(C)CCC1(O)c1ccccc1 (stereo not given),-5,0.9
CNC(=O)C[C@H]1C(=O)NCCN1Cc1cc(O)c2cc(F)ccc2n1,-12,2.13
CC1=CCCN(C(=O)[C@H]2CCCN(C(=O)c3ccc(F)cc3)C2)C1,2,-0.19
CCC[C@H](C)C(=O)Nc1ccc(S(N)(=O)=O)cc1,-14,2.7
COc1ccc(C(=O)N/C(=C\c2cn(S(=O)(=O)N(C)C)c3ccccc23)C(=O)N2CCCCC2)cc1OC,-8,1.38
CCc1nc(C)c([C@H](C)N(C)Cc2coc(-c3ccc(C(=O)OC)cc3)n2)s1,-6,1.06
CS(=O)(=O)c1ccc(Cl)c(S(=O)(=O)N2CCC(n3ccnc3)CC2)c1,1,-0.11
CCC1CN(C(=O)c2csc(COC)n2)CC1N1CCOCC1 (stereo not given),-3,0.47
CCc1noc(CNCCn2cccn2)n1,-6,0.79

SMILES,% Inhibition [%],Z score
CC(C)S(=O)(=O)CCCn1cc(C#N)cn1,-1,0.16
Cc1ncncc1C(=O)N1CCC[C@H](c2noc(C(C)C)n2)C1,1,-0.06
OCCN(CCO)C[C@H]1Cc2ccccc2O[C@@H]1C(F)(F)F,-11,1.39
Cc1cccc(S(=O)(=O)NCc2cccc3c2OCO3)c1F,-9,1.23
CCS(=O)(=O)CCNc1nc(C)nc2c1Cc1ccccc1OC2,-8,1.04
CCc1noc(C)c1C(=O)Nc1sc2c(c1C(N)=O)CCCCC2,-23,2.07
CC(C)(C)OC(=O)N1CCC(C)(C)C1C(=O)NCC1CCCOC1 (stereo not given),12,-1.33
C[C@@H](CNC(=O)C1CCCCC1)NC(=O)C1CCCCC1,-6,1.09
Cc1cc(C(=O)N(C)[C@@H](C)C(C)(C)C)no1,0,-0.05
CC(C)n1ccc(CN2C(=O)C[C@H](C)C2=O)n1,-6,0.51
CCc1c(C(C)(C)C)noc1NC(=O)[C@H]1CCCO1,-15,2.48
O=C(c1ccc(N2C(=O)C3C4CCC(C4)C3C2=O)cc1)N1CCCCC1 (stereo not given),-11,1.48
COc1ccc(Nc2nc(-c3cc(C(N)=O)oc3C)cs2)cn1,-8,0.9
CC(=O)NCCNC(=O)c1cc(NCc2ccc3c(c2)OCO3)cc(S(=O)(=O)N(C)C)c1,-2,0.24
COCCNC(=O)CCNc1ccc(Br)cn1,-6,0.95
CCN(Cc1cn(C)nn1)Cc1cccc(OC)c1Cl,23,-2.92
O=C(CCc1nnc[nH]1)NC1(c2ccc(F)cc2F)CCCCC1,-9,1.15
Cc1ccc(-n2nc(C)c(CC(=O)N3CCCC(C(C)N)C3)c2C)cc1Cl (stereo not given),-11,1.08
N#CCCN1CCN(C(=O)c2cn3ccnc(-c4ccccc4)c3n2)CC1,34,-3.87
O=C(NCCc1c[nH]c2ccc(Br)cc12)c1cc[nH]n1,-16,2.61
CCc1nccn1C[C@H](C)NCc1ccc(N2CCCC2=O)cc1,-7,0.62
O=C(CN1C(=O)COc2ccc(F)cc21)NCc1ccc2c(c1)OCO2,9,-1.08

SMILES,% Inhibition [%],Z score
O=C([C@@H]1CCCO1)N1CCN(C(c2ccccc2)c2ccccc2)CC1,4,-0.55
C[C@H](NC(=O)COc1ccc(-c2ccccc2)cc1CN(C)C)c1ccco1,-4,0.64
COc1ccc(CCC(=O)N(CCS(=O)(=O)N2CCNCC2)C(C)C)cc1,0,-0.05
CN(Cc1nnc[nH]1)C(=O)C1CCC(NC(=O)CC2CCCCC2)CC1 (stereo not given),1,-0.1
CC(C)(C)c1cc(NC(=O)CN2CCNC(=O)CC2)on1,-33,3.87
Cc1ccc2c(c1)CCCN2C(=O)CN1CC[C@](C)(O)[C@@H](O)C1,1,-0.27
O=C([C@H]1CN(S(=O)(=O)c2cccs2)CC12CCOCC2)N1CCCCC1,-5,0.99
COc1ccccc1CNC(=O)CN1CCn2nc(C)cc2C1,-12,1.91
C[C@]1(O)CCN(C(=O)c2ccc(O)cc2)C[C@H]1Cc1ccccc1,-3,0.37
CC[C@H](O)c1cc2n(n1)CCN(c1cc(OC)nc(N)n1)C2,-7,1
CCCc1nnnn1Cc1nc(C)c(C)s1,6,-1.1
CN1CCN([C@H]2CN(C(=O)c3ccc(Cl)cc3O)C[C@@H]2O)CC1,-16,3.13
CC(C)CN(Cc1c(-c2ccccc2)nn(C)c1N(C)C)C(=O)NC(C)C,-5,1.04
COc1ccc(-c2nn(CN(C)Cc3ccc(Cl)cc3)c(=S)o2)cc1OC,-8,1.09
C[C@H](OCC1CC1)C(=O)N(Cc1ccc[nH]1)c1ccc(N(C)C)cc1,-10,1.2
Cc1cccc(CN(CCc2c[nH]c3ccccc23)Cc2nc(C(=O)N(C)Cc3ccccc3)co2)c1,-13,2.16
CC(C)Oc1cc(N[C@H]2C[C@H](c3nnc(CN(C)C)n3C)C2)nc(N)n1,-5,0.47
Cc1csc(NC(=O)C2CCN(c3cc(C4CC4)ncn3)CC2)n1,-10,1.91
Cc1nc(CN2CC[S@@+]([O-])CC2(C)C)c(C)s1,-2,0.29
